Assay: soluble on expression in E. coli; label from the status in PepcDB or PDB records

## GAMGSNIESTLNSVASVKDLANEASKYEIILQKGINQVGLKQYTQVVHKLDDMLEDIQSGQANREENSEFHGILTHLEQLIKRSEAQLRVYFISILNSIKPFDPQINITKKMPFPYYEDQQLGALSWILDYFHGNSEGSIIQDILVGERSKLILKCMAFLEPFAKEISTAKNAPYEKGSSGMNSYTEALLGFIANEKSLVDDLYSQYTESKPHVLSQILSPLISAYAKLFGANLKIVRSNLENFGFFSFELVESINDVKKSLRGKELQNYNLLQDCTQEVRQVTQSLFRDAIDRIIKKANSISTIPSNNGVTEATVDTMSRLRKFSEYKNGCLGAMDNITRENWLPSNYKEKEYTLQNEALNWEDHNVLLSCFISDCIDTLAVNLERKAQIALMPNQEPDVANPNSSKNKHKQRIGFFILMNLTLVEQIVEKSELNLMLAGEGHSRLERLKKRYISYMVSDWRDLTANLMDSVFIDSSGKKSKDKEQIKEKFRKFNEGFEDLVSKTKQYKLSDPSLKVTLKSEIISLVMPMYERFYSRYKDSFKNPRKHIKYTPDELTTVLNQLVR
  soluble on expression in E. coli: soluble

Source: the DeepSol protein solubility set
